Experimental data from PubChem BioAssay AID686978 (National Center for Advancing Translational Sciences (NCATS), 2013).
“And” between values parts separate entries of the source, which are not always exact repeats. Equal entries are not always repeated. Among all 420,000 compounds or so, about 64,000 (15%) were called active. Inconclusive means that the source gave no clear call. Such entries were picked first, then a sample of the others. Calls follow the shape of the dose curve; as a rule, active = well fitted inhibition curve with a large enough effect; inconclusive = small, poorly fitted or top-dose-only effect; inactive = flat fitted curve, though single readings scatter. Where the call is inconclusive, the potency comes from a doubtful curve fit.

Experiment: qHTS for Inhibitors of human tyrosyl-DNA phosphodiesterase 1 (TDP1): qHTS in cells in absence of CPT; also: nearly all actives have a fitted effect of over 55% in size
Settings: DT40 Tdp1-/- hTDP1 cells, no CPT, ATP luminescence, 48 h; activity change, negative = growth inhibition: at 46.2 µM (top of the series) unless noted
Summary of the method: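 Luminescent ATP content (CellTiter-Glo) served as the growth readout. Knockout chicken DT40 cells expressing human TDP1 were exposed to compounds without camptothecin for a minimum 48 hr at 37 °C.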
% is scaled to controls: 0 for no effect and ±100 for the full control effect; potency is read from the fitted curve at half-maximal effect; tags tell the direction and shape of the fitted curve.

Structure (SMILES) | Potency | activity change, negative = growth inhibition
Cc1cc(=O)oc(C)c1C(=O)NC12CC3CC(CC(C3)C1)C2 | inactive | 
Cc1c(C(=O)NCC(C)C)sc2ncnc(NCC3CCCO3)c12 (stereo not given) | inactive | 
CC(=O)N1CCN(C(=S)c2ccc(N(C)C)cc2)CC1 | inactive | 
CC1CCN(CCNC(=O)CCS(=O)(=O)c2ccc(Br)cc2)CC1 | inactive | 
CCC(=O)Nc1ccc(-c2nnc(SCC(=O)NCC3CCCO3)n2C)cc1 (stereo not given) | inactive | 
CC/C(=C\c1ccc(Cl)cc1)c1ccncc1 | inconclusive: 29.1 µM [inhibitor, single point] | 
Cc1cccc(NC(=O)CSc2nc3c(oc4ccccc43)c(=O)n2-c2ccccc2)c1 | inconclusive: 9.2 µM [inhibitor, partial curve, poor fit] | 
Cc1noc(/C=C/N(C)C)c1S(=O)(=O)N1CCCC(C(=O)NCc2ccc(Cl)cc2)C1 (stereo not given) | inconclusive: 18.4 µM [inhibitor, single point] | 
COc1ccc(Cl)cc1N(CC(=O)NCc1ccccn1)S(=O)(=O)c1ccc(C)cc1 | inconclusive: 29.1 µM [inhibitor, single point] | 
CO[C@H]1[C@H](NC(=O)c2ccncc2)c2ccccc2C12CCN(C(=O)c1ccoc1)CC2 | inactive | 
CSc1nc2sc3c(c2c(=O)n1-c1ccc(C)c(Cl)c1)CCN(C(C)=O)C3 | active: 14.6 µM | 
O=C(c1cc2cc(F)ccc2[nH]1)N1CCN(c2ccc(F)cc2)CC1 | inactive | 
COc1ccc(OC)c(CN2CCN(C(=O)c3ccc(S(=O)(=O)Nc4ccccc4F)cc3)CC2)c1 | inconclusive: 16.4 µM [inhibitor, single point] | 
COc1cccc(OCCOCC(O)CN2CCN(Cc3ccc(Cl)cc3)CC2)c1 (stereo not given) | inconclusive: 29.1 µM [inhibitor, single point] | 
N#C/C(=C/c1ccc(CNS(=O)(=O)c2ccccc2)o1)C(N)=O | inactive | 
COc1ccc(N=C2SC(CC(=O)Nc3ccccc3)C(=O)N2CCN2CCOCC2)cc1 (stereo not given) | inactive | 
COc1cc(S(=O)(=O)N2CCCC3(CCCCC3)C2)ccc1-n1cnnn1 | inconclusive: 9.2 µM [inhibitor, partial curve] | 
COC(=O)c1ccc(NC(=O)CSc2nc(=O)n(Cc3ccco3)c3c2CCC3)cc1 | inconclusive: 29.1 µM [inhibitor, single point] | 
C=CCN1C(=O)c2ccc(C(=O)OCC(=O)N(CC)c3c(N)n(Cc4ccccc4)c(=O)[nH]c3=O)cc2C1=O | inactive | 
CC(C)(C)NC(=O)C1CCN(c2ccc(S(=O)(=O)N3CCOCC3)cc2Cl)CC1 | inactive | 
O=C1CSc2cc(Cl)ccc2N1 | inactive | 
C[C@@H]1CN([C@@H](C)CO)C(=O)CCCn2cc(nn2)CO[C@H]1CN(C)S(=O)(=O)c1ccc2ccccc2c1 | inconclusive: 7.31 µM [inhibitor, partial curve] | 
CC(=O)c1cccc(NC(=O)N2CCCC2C(=O)NC2CCCCC2)c1 (stereo not given) | inactive | 
Fc1ccccc1C1c2[nH]c3ccccc3c2CCN1CCCn1cccn1 (stereo not given) | inconclusive: 18.4 µM [inhibitor, partial curve, poor fit] | 

Structure (SMILES) | Potency | activity change, negative = growth inhibition
Cc1cc(-c2onc3ccc(Cl)cc23)ccc1O | inconclusive: 8.2 µM [inhibitor, partial curve] | 
CCCCOc1ccc(C(C)NC(=O)CCS(=O)(=O)Cc2ccccc2F)cc1 (stereo not given) | inconclusive: 11.6 µM [inhibitor, partial curve, poor fit] | 
Cc1cc(-n2c(C)cc(C(=O)COc3ccc(Cl)cc3C(N)=O)c2C)no1 | inconclusive: 5.17 µM [inhibitor, partial curve] | 
COc1cccc(-c2nc(C=O)cs2)c1 | inconclusive: 29.1 µM [inhibitor, single point] | 
COc1ccccc1-c1cc2nc(-c3ccccc3)cc(N3CCN(C(=O)c4ccoc4)CC3)n2n1 | active: 5.17 µM | 
COc1cccc(CNc2cccc3cccnc23)c1O |  | inconclusive: -32.9% [inhibitor]
O=C(c1ccc(-n2cccn2)cc1)N1CCc2ccccc2C1 | inconclusive: 18.4 µM [inhibitor, partial curve, poor fit] | 
Cc1cc(=O)c2c(O)c3c(O)cc(O)c4c5c(O)cc(O)c6c(O)c7c(=O)cc(C)c8c1c2c(c34)c(c65)c78 | active: 8.2 µM | 
O=C1OC(/C(=C\Nc2cc(Cl)ccc2O)[N+](=O)[O-])c2ccccc21 (stereo not given) | inconclusive: 16.4 µM [inhibitor, single point] | 
Cc1cc(OCCN2CCCC2)ccc1C(C)C | inconclusive: 16.4 µM [inhibitor, single point] | 
N#CC1(NC(=O)COC(=O)c2nc(Cl)c(Cl)c(N)c2Cl)CCCCC1 | inactive | 
CN1CCN(S(=O)(=O)c2cccc(C(=O)Nc3ccc(Br)cc3Br)c2)CC1 | inconclusive: 29.1 µM [inhibitor, single point] | 
CCC(NC(=O)c1cccc(Cn2nc(C)c([N+](=O)[O-])c2C)c1)c1ccc(C(C)C)cc1 (stereo not given) | inconclusive: 16.4 µM [inhibitor, single point] | 
CCc1nc2c(OCc3ccccc3OC)cccn2c1N(C)C(=O)C(C)C | inconclusive: 20.6 µM [inhibitor, single point] | 
Cc1cc(N2CCN(c3ccccc3)CC2)nc(N2CCOCC2)n1 | inconclusive: 16.4 µM [inhibitor, single point] | 
Cc1sc2nc(CN3CCCC3)nc(N3CCN(S(=O)(=O)c4ccccc4)CC3)c2c1C | inconclusive: 20.6 µM [inhibitor, single point] | 
O=C(NNC(=S)NC(=O)c1ccccc1[N+](=O)[O-])c1ccccc1 | inconclusive: 29.1 µM [inhibitor, partial curve, poor fit] | 
CCc1ccc(NC(=O)CCS(=O)(=O)c2ccc(Cl)cc2)cc1 | inconclusive: 13 µM [inhibitor, partial curve] | 
O=C1c2[nH]nc(-c3ccccc3O)c2C(c2ccccc2F)N1Cc1ccco1 (stereo not given) | inconclusive: 18.4 µM [inhibitor, single point] | 
COc1ccc(CN(C)C[C@@H]2OCc3cnnn3CCCC(=O)N([C@H](C)CO)C[C@H]2C)cc1 | inactive | 
CCc1cc2c(=O)c(-c3cscn3)coc2c(CN(C)C)c1O | active: 2.31 µM | 
COc1ccc(-c2cc(C(F)F)n3ncc(C(=O)Nc4cc(C)on4)c3n2)cc1 | inactive | 
CN(Cc1ccccc1)C1CCCN(C(=O)c2ccc(Cl)s2)C1 (stereo not given) | inconclusive: 29.1 µM [inhibitor, single point] | 
O=C(NC(c1ccc(F)cc1)c1ccc2ccccc2n1)C1CCN(CCOc2ccc(Cl)cc2Cl)CC1 (stereo not given) | inconclusive: 20.6 µM [inhibitor, single point] | 

Structure (SMILES) | Potency | activity change, negative = growth inhibition
Cc1cc(Cl)c(S(=O)(=O)N2CCN(c3ccccc3)CC2)cc1OCC(N)=O | inconclusive: 23.1 µM [inhibitor, single point] | 
CC(NCC(=O)NCC(=O)Nc1ccc(F)cc1)c1cccc(C(F)(F)F)c1 (stereo not given) | inactive | 
CC(C)(C)c1ccc(-c2nnc(SCCN3C(=O)c4ccccc4C3=O)o2)cc1 | inactive | 
COc1cc(OC)c(C(=O)NCc2ccc3c(c2)OCO3)cc1OC | inconclusive: 20.6 µM [inhibitor, single point] | 
CNc1nc(C)c([N+](=O)[O-])c(Nc2ccc(OC)cc2)n1 | active: 23.1 µM | 
CN(C)c1ccc(Nc2nc(N)c([N+](=O)[O-])c(N3CCOCC3)n2)cc1 | active: 25.9 µM | 
Cc1ccccc1C(=O)N1CCC(c2nc3ccccc3s2)CC1 | inconclusive: 16.4 µM [inhibitor, single point] | 
Cc1cccc(Cn2c(N3CCc4ccccc4C3)nc3c2c(=O)[nH]c(=O)n3C)c1 | inconclusive: 6.51 µM [inhibitor, full curve, poor fit] | 
O=C(Nc1ccc(N2CCOCC2)cc1)c1cnccn1 | inactive | 
COc1ccccc1N(CC(=O)NC(C)(C)C)C(=O)c1ccc(Cl)nc1 | inconclusive: 23.1 µM [inhibitor, partial curve] | 
CSC(=NC1CCCCC1)NS(=O)(=O)c1ccccc1 | inconclusive: 32.6 µM [inhibitor, partial curve] and inconclusive: 25.9 µM [inhibitor, single point] | 
N#Cc1ccc(NC(=O)C2=COCCO2)cc1 | inconclusive: 4.61 µM [inhibitor, single point] | 
CC1(C)CC(=O)C=C(Nc2ccc(Cl)c(Br)c2)C1 | inconclusive: 14.6 µM [inhibitor, partial curve] | 
O=C(NCCCc1nc2ccccc2n1Cc1ccccc1Cl)C1CCCCC1 | active: 18.4 µM | 
Cc1ccc(CS(=O)Cc2ccc(C(=O)N3CCN(c4ccccc4)CC3)o2)cc1 (stereo not given) | inconclusive: 20.6 µM [inhibitor, single point] | 
CC(=O)C1=C(OC(=O)C(C)C)c2ccccc2S(=O)(=O)N1Cc1ccccc1 | inconclusive: 20.6 µM [inhibitor, single point] | 
Nc1nc(N2CCN(c3ccc(F)cc3)CC2)n[nH]1 | inactive | 
CC(/C=C/c1ccc(O)cc1)=NNc1ccccc1 | inconclusive: 18.4 µM [inhibitor, single point] | 
O=C(NCCCCCCNC(=O)OC1CCS(=O)(=O)C1)OC1CCS(=O)(=O)C1 (stereo not given) | inactive | 
Cc1nnc(SCC(=O)N(CC(C)C)C2CCS(=O)(=O)C2)s1 (stereo not given) | inactive | 
O=C(CSCc1ccc([N+](=O)[O-])cc1)Nc1ccc(S(=O)(=O)N2CCCCCC2)cc1 | inconclusive: 29.1 µM [inhibitor, single point] | 
Cn1c(=O)c2c(nc(NCCCN3CCOCC3)n2Cc2cccc(Cl)c2)n(C)c1=O | inconclusive: 23.1 µM [inhibitor, single point] | 
